Source: the supplement of paper PMC4967469
A lower IC50 marks a more sensitive line; fits outside the tested doses are given as limits. AUC sums up the same curve from the lowest dose to the 256-fold higher top dose: 1 means no effect, lower means more sensitive. For part of these data: Where the top dose is marked as inferred, it was calculated from the reported fits. For part of these data: Drugs with an entry number were screened twice under separate entries, and the two screens often disagree.

Assays:
Assay in all cases: Viability of human cancer cell lines after 72 h of drug (GDSC screen)
Tretinoin = compound: CC1=C(/C=C/C(C)=C/C=C/C(C)=C/C(=O)O)C(C)(C)CCC1 [Tretinoin]; conditions: top dose 10 µM; top dose inferred
Description: (§1)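 Human cancer cell lines in 384-well plates, medium with 10% serum, drug for 72 h over a 256-fold dose range (nine 2-fold or five 4-fold steps up to the top dose). Adherent lines were fixed and stained with the nucleic acid dye Syto60, suspension lines read with resazurin; signal relative to control wells, capped at 0 and 100%. One two-parameter sigmoid per drug and line, fitted in a mixed model over all curves with the slope shared within a line.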

GSK690693 = compound: CCn1c(-c2nonc2N)nc2c(C#CC(C)(C)O)ncc(OC[C@H]3CCCNC3)c21 [GSK690693]; conditions: top dose 10.24 µM; top dose inferred
Description: as §1

UNC0638 = compound: COc1cc2c(NC3CCN(C(C)C)CC3)nc(C3CCCCC3)nc2cc1OCCCN1CCCC1 [UNC0638]
Description: as §1

WH-4-023 = compound: COc1ccc(N(C(=O)Oc2c(C)cccc2C)c2ccnc(Nc3ccc(N4CCN(C)CC4)cc3)n2)c(OC)c1 [WH-4-023]; conditions: top dose 5.12 µM; top dose inferred
Description: as §1

SB-505124 = compound: Cc1cccc(-c2[nH]c(C(C)(C)C)nc2-c2ccc3c(c2)OCO3)n1 [SB-505124]; conditions: top dose 10 µM; top dose inferred
Description: as §1

BX-795 = compound: O=C(NCCCNc1nc(Nc2cccc(NC(=O)N3CCCC3)c2)ncc1I)c1cccs1 [BX-795]; conditions: top dose 5 µM; top dose inferred
Description: as §1

PI-103 = compound: Oc1cccc(-c2nc(N3CCOCC3)c3oc4ncccc4c3n2)c1 [PI-103]; conditions: top dose 10.24 µM
Description: as §1

[1] = top dose 20 µM, screen: GDSC drug entry 1236, top dose inferred
[2] = top dose 40 µM, screen: GDSC drug entry 245

| Cell Line | AUC (Tretinoin) | IC50 (Tretinoin) [µM] | AUC (GSK690693) | IC50 (GSK690693) [µM] | AUC (UNC0638; [1]) | IC50 (UNC0638; [1]) [µM] | AUC (UNC0638; [2]) | IC50 (UNC0638; [2]) [µM] | AUC (WH-4-023) | IC50 (WH-4-023) [µM] | AUC (SB-505124) | IC50 (SB-505124) [µM] | AUC (BX-795) | IC50 (BX-795) [µM] | AUC (PI-103) | IC50 (PI-103) [µM] |
| --- | --- | --- | --- | --- | --- | --- | --- | --- | --- | --- | --- | --- | --- | --- | --- | --- |
| REH (B-cell leukaemia, suspension) | 0.985 | > 10 | 0.167 | 0.0657 | 0.781 | 7.94 | 0.495 | 2.43 | 0.973 | > 5.12 | 0.961 | > 10 | 0.88 | 4.86 | 0.171 | 0.0682 |
| RF-48 (stomach, adherent) | 0.957 | > 10 | 0.797 | 5.49 | 0.984 | > 20 | 0.628 | 5.9 | 0.959 | > 5.12 | 0.979 | > 10 | 0.958 | > 5 | 0.377 | 0.28 |
| RH-1 (rhabdomyosarcoma, adherent) | 0.952 | > 10 | 0.957 | > 10.2 | 0.742 | 5.32 | 0.611 | 4.76 | 0.992 | > 5.12 | 0.891 | 8.32 | 0.795 | 1.9 | 0.665 | 1.69 |
| RKO (large intestine, adherent) | 0.964 | > 10 | 0.965 | > 10.2 | 0.96 | > 20 | 0.765 | 13.6 | 0.922 | > 5.12 | 0.906 | > 10 | 0.9 | > 5 | 0.575 | 1.01 |
| RL (B-cell lymphoma, suspension) | 0.901 | > 10 | 0.535 | 0.79 | 0.806 | 9.15 | 0.573 | 3.88 | 0.98 | > 5.12 | 0.93 | > 10 | 0.959 | > 5 | 0.201 | 0.0919 |
| ROS-50 (B-cell leukaemia, suspension) | 0.952 | > 10 | 0.983 | > 10.2 | 0.851 | > 20 | 0.601 | 5.11 | 0.961 | > 5.12 | 0.981 | > 10 | 0.977 | > 5 | 0.615 | 1.45 |
| RPMI-6666 (Hodgkin lymphoma, suspension) | 0.907 | > 10 | 0.669 | 2.1 | 0.769 | 9.11 | 0.61 | 5.34 | 0.732 | 1.7 | 0.965 | > 10 | 0.881 | > 5 | 0.172 | 0.0506 |
| RPMI-8402 (T-cell lymphoblastic leukaemia, suspension) | 0.986 | > 10 | 0.283 | 0.175 | 0.667 | 3.34 | 0.462 | 2 | 0.924 | > 5.12 | 0.965 | > 10 | 0.718 | 1.14 | 0.149 | 0.0683 |
| RPMI-8866 (chronic myeloid leukaemia, suspension) | 0.726 | 2.6 | 0.988 | > 10.2 | 0.794 | 8.5 | 0.641 | 5.95 | 0.988 | > 5.12 | 0.809 | 4.77 | 0.785 | 1.98 | 0.669 | 1.82 |
| RXF393 (kidney, adherent) | 0.978 | > 10 | 0.806 | 7.85 | 0.799 | 14.2 | 0.691 | 10.6 | 0.31 | 0.0756 | 0.924 | > 10 | 0.854 | > 5 | 0.407 | 0.323 |
| Raji (Burkitt lymphoma, suspension) | 0.98 | > 10 | 0.989 | > 10.2 | 0.766 | 6.92 | 0.732 | 10.9 | 0.98 | > 5.12 | 0.973 | > 10 | 0.979 | > 5 | 0.805 | 4.78 |
| Ramos-2G6-4C10 (Burkitt lymphoma, suspension) | 0.875 | 7.44 | 0.961 | > 10.2 | 0.816 | 9.13 | 0.716 | 9.15 | 0.93 | > 5.12 | 0.957 | > 10 | 0.733 | 1.28 | 0.259 | 0.148 |
| SBC-1 (small cell lung carcinoma, suspension) | 0.988 | > 10 | 0.937 | > 10.2 | 0.764 | 7.02 | 0.546 | 3.32 | 0.988 | > 5.12 | 0.967 | > 10 | 0.883 | > 5 | 0.216 | 0.0978 |
| SCH (stomach, adherent) | 0.984 | > 10 | 0.975 | > 10.2 | 0.831 | 14 | 0.923 | > 40 | 0.988 | > 5.12 | 0.985 | > 10 | 0.888 | > 5 | 0.93 | > 10.2 |
| SF126 (glioma, adherent) | 0.986 | > 10 | 0.953 | > 10.2 | 0.84 | 14.8 | 0.881 | > 40 | 0.677 | 1.03 | 0.938 | > 10 | 0.815 | 2.95 | 0.673 | 2 |
| SF268 (glioma, adherent) | 0.985 | > 10 | 0.968 | > 10.2 | 0.743 | 6.59 | 0.643 | 6.42 | 0.728 | 1.51 | 0.983 | > 10 | 0.853 | 4.37 | 0.663 | 1.89 |
| SF539 (glioma, adherent) | 0.948 | > 10 | 0.882 | 8.97 | 0.645 | 3.01 | – | – | 0.966 | > 5.12 | 0.975 | > 10 | 0.858 | 3.46 | 0.608 | 1.23 |
